This is an account of results in PubChem BioAssay AID360 (National Center for Advancing Translational Sciences (NCATS), 2006).

The campaign covered roughly 48,000 compounds. About 550 (1.1%) were called active. About 4% were inconclusive and are not listed. Rule as the data show it: active = potency below about 15 µM; inconclusive = mostly about 16 µM to 33 µM; inactive = weaker than that. This is one part of the list.
Potency is read from the fitted curve at half-maximal effect.

For the experiment, the target named is Lysosomal acid glucosylceramidase (Homo sapiens) (UniProt P04062). In words: Glucocerebrosidase.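 Also: the screen sought inhibitors.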 As to conditions: purified enzyme, resorufin glucoside fluorescence (screen aimed at inhibitors), 20 min. The procedure, abridged: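 Compounds titrated against 0.2 nM normal enzyme, 30 uM resorufin beta-D-glucopyranoside substrate, citrate/phosphate buffer with taurocholate and tween-20, pH 5.9. Reaction ran 20 min at room temperature; fluorescence (Ex 548/Em 600) gave AC50.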
Sequence of UniProt P04062 (P04062 whole entry, looked up): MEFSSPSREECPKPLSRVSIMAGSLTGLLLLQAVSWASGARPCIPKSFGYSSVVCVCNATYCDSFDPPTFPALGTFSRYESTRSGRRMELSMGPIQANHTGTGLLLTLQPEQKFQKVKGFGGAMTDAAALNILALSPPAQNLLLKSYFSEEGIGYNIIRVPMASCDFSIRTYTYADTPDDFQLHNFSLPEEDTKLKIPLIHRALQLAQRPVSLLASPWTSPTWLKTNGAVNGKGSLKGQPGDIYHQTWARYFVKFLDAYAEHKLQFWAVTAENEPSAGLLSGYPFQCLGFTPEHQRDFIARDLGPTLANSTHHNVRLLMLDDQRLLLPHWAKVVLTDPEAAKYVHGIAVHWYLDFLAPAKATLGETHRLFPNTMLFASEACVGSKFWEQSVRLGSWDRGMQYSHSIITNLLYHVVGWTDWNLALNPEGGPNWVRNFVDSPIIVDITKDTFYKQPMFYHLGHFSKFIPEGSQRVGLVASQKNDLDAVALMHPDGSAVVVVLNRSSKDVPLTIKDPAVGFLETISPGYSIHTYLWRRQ
Consider `Cc1ccc2cc(CN(Cc3nnnn3C3CCCC3)C3CCCCC3)c(=O)[nH]c2c1C`, for which the Potency was inactive: > 76.9 µM.

For `CCCCCCOC(=O)C1=C(C)NC(=O)NC1c1ccc(O)cc1` (stereo unspecified), the Potency was inactive: > 76.9 µM.

Consider `CCOC(=O)CSCC(=O)Nc1cc(C)ccc1C`, for which the Potency is inactive: > 76.9 µM.

Regarding `C=C(C)c1cccc(C(C)(C)NC(=O)N2CCOCC2)c1`, the Potency is inactive: > 76.9 µM.

As for `Cc1ccc(OCC(=O)OC2CCS(=O)(=O)C2)cc1` (stereo unspecified), the Potency is inactive: > 76.9 µM.

As to `COc1cccc(NC(=O)c2ccccc2-c2nc(-c3ccccc3)no2)c1`, the Potency is inactive: > 76.9 µM.

Take `CCOC(=O)c1c(-c2ccc(C)o2)csc1NC(=O)CSc1nnc(C)s1`: the Potency was inactive: > 76.9 µM.

In the case of `Clc1ccc(N2CCN(c3ncnc4c3oc3ccccc34)CC2)cc1`, the Potency is inactive: > 76.9 µM.

Take `CS(=O)(=O)N1CCN(c2ccccc2NC(=O)c2cccnc2)CC1`: the Potency is inactive: > 76.9 µM.

As to `COCCn1cnc2cc(C)c(C)cc21`, the Potency is inactive: > 76.9 µM.

Regarding `O=C(CS(=O)(=O)c1cn(Cc2cccc(F)c2)c2ccccc12)N1CCCCC1`, the Potency is inactive: > 76.9 µM.

For the molecule `Nc1c(C(=O)OCC2CCCO2)c2nc3ccccc3nc2n1-c1ccc2c(c1)OCCO2` (stereo unspecified), the Potency is inactive: > 76.9 µM.

With `O=C(NCc1ccc(Cl)cc1)C1C2C=CC3(CN(Cc4cccnc4)C(=O)C13)O2` (stereo unspecified), the Potency is inactive: > 76.9 µM.

As to `Cc1cc(C)c2cc(C(O)c3nnnn3Cc3ccccc3)c(=O)[nH]c2c1` (stereo unspecified), the Potency is inactive: > 76.9 µM.

Take `CCOC(=O)CNC(=O)c1cn(C)c(=O)c2cc(OC)c(OC)cc12`: the Potency was inactive: > 76.9 µM.

In the case of `CCCCn1nnnc1NCc1ccc(OC)c(OC)c1OC`, the Potency is inactive: > 76.9 µM.

Turning to `Cc1cccc(-c2noc(CN(C(=O)c3ccc4c(c3)OCO4)C(C)C)n2)c1`, the Potency is inactive: > 76.9 µM.

In the case of `c1ccc(CC2CCN(c3nc(N4CCOCC4)nc(N4CCOCC4)n3)CC2)cc1`, the Potency is inactive: > 76.9 µM.

On to `CCOC(=O)C1CCN(C(=O)CC2C(=O)N(Cc3ccccc3)C(C)c3nc4ccccc4n32)CC1` (stereo unspecified), for which the Potency was inactive: > 76.9 µM.

Regarding `N#Cc1c(NC(=O)COC(=O)C2CC3C=CC2C3)oc(-c2ccccc2)c1-c1ccccc1` (stereo unspecified), the Potency was inactive: > 76.9 µM.

Turning to `C=CCNC(=O)c1ccc(C(=O)c2ccccc2)cc1`, the Potency was inactive: > 76.9 µM.

As for `O=C(CSc1nnc(-c2cccnc2)n1-c1ccccc1)Nc1ccc2c(c1)OCO2`, the Potency is inactive: > 76.9 µM.

With `Cc1c(C(=O)NCCN2CCOCC2)oc2ccccc12`, the Potency is inactive: > 76.9 µM.

Regarding `COc1ccc(S(=O)(=O)N(C)c2ccc(C(=O)NCC3CCCO3)cc2)cc1` (stereo unspecified), the Potency was inactive: > 76.9 µM.

As for `CCOC(=O)N1CCN(C(=O)c2cccc(NC(=O)c3ccco3)c2)CC1`, the Potency was inactive: > 76.9 µM.

For the molecule `COCCNC(=O)c1sc2nc(-c3ccccc3)cn2c1C`, the Potency was inactive: > 76.9 µM.

With `COC(=O)C(NS(=O)(=O)c1ccc(NC(C)=O)cc1)C(C)C` (stereo unspecified), the Potency is inactive: > 76.9 µM.

Regarding `Cc1nc2ccccc2n1CC(=O)NCc1ccccc1`, the Potency was inactive: > 76.9 µM.

Consider `COc1ccc(S(N)(=O)=O)cc1C(=O)NCC1(N2CCCCC2)CCCCC1`, for which the Potency was inactive: > 76.9 µM.

In the case of `O=C(CCN1C(=O)C2C3C=CC(C3)C2C1=O)N1CC(=O)N(CCc2ccccc2)C(=O)C1` (stereo unspecified), the Potency is inactive: > 76.9 µM.

As to `CN1C(=O)c2oc3ccccc3c(=O)c2C1c1ccncc1` (stereo unspecified), the Potency is inactive: > 76.9 µM.

As for `CC1(C)CC(=O)C(CCC(=O)c2ccccc2)C(C)(C)N1` (stereo unspecified), the Potency was inactive: > 76.9 µM.

`Fc1ccc(-c2cc3nc4c(c(N5CCOCC5)n3n2)CCCC4)cc1`: the Potency is inactive: > 76.9 µM.

With `O=S(=O)(/C=C/c1ccccc1)n1cnc2ccccc21`, the Potency was inactive: > 76.9 µM.

As to `O=C(OCCN1C(=O)c2ccccc2C1=O)c1cccc(OC(F)F)c1`, the Potency is inactive: > 76.9 µM.

Consider `CCCC1(C(=O)OC)NC(c2cc(OC)c(OC)c(OC)c2)C2C(=O)N(CC)C(=O)C21` (stereo unspecified), for which the Potency was inactive: > 76.9 µM.

For the molecule `CC(C)Nc1oc(-c2cccc3ccccc23)nc1C#N`, the Potency was inactive: > 76.9 µM.

`Cn1c(=O)oc2cc(S(=O)(=O)Nc3ccc4c(c3)OCCO4)ccc21`: the Potency was inactive: > 76.9 µM.

As to `O=C(CN(Cc1ccc(F)cc1)C(=O)Cn1nnc2ccccc21)NCC1CCCO1` (stereo unspecified), the Potency is inactive: > 76.9 µM.

In the case of `CSc1ccccc1NC(=O)c1ccccc1N(C)S(C)(=O)=O`, the Potency was inactive: > 76.9 µM.

Consider `CC(=O)N1CCc2cc(S(=O)(=O)NCCC(=O)Nc3ccc4c(c3)OCCO4)ccc21`, for which the Potency is inactive: > 76.9 µM.

Consider `CCN1CCN(C(c2ccccc2F)c2nnnn2Cc2ccc3c(c2)OCO3)CC1` (stereo unspecified), for which the Potency is inactive: > 76.9 µM.

As for `COc1ccc(C(=O)OCC(=O)c2cc(OC)ccc2OC)c(OC)c1`, the Potency was inactive: > 76.9 µM.

Take `CCOC(=O)CSc1nnc(CNc2ccc(Cl)cc2)n1-c1ccccc1`: the Potency was inactive: > 76.9 µM.

On to `Cc1cc(Cl)c(OCCCn2cncn2)c(Br)c1`, for which the Potency is inactive: > 76.9 µM.

Regarding `Nc1ccc2oc(-c3ccccn3)nc2c1`, the Potency was inactive: > 76.9 µM.

With `CCOC(=O)c1cccc(NC(=O)c2cnccn2)c1`, the Potency is inactive: > 76.9 µM.

In the case of `CS(=O)(=O)Nn1cnc2ccccc2c1=O`, the Potency was inactive: > 76.9 µM.

With `O=c1ccn(Cc2ccccc2Cl)cc1`, the Potency was inactive: > 76.9 µM.

Consider `O=C(O)c1ccc2noc(-c3ccccc3)c2c1`, for which the Potency is inactive: > 76.9 µM.

As for `COc1ccccc1N(C(=O)CNS(=O)(=O)c1ccccc1)C(C(=O)NCc1ccco1)C(C)C` (stereo unspecified), the Potency is inactive: > 76.9 µM.

In the case of `CCCc1nnc(SCCSc2nnc(CCC)n2N)n1N`, the Potency is inactive: > 76.9 µM.

On to `CCc1cc2cc(C)ccc2nc1SCC(=O)N1CCN(C(=O)c2ccco2)CC1`, for which the Potency was inactive: > 76.9 µM.

Regarding `Cc1ccc(CCNC(=O)NC(C)(C)C)cc1`, the Potency was inactive: > 76.9 µM.

As for `COc1c2occc2cc2ccc(=O)oc12`, the Potency was inactive: > 76.9 µM.

On to `CCC(C)(C(=O)NC1CCCCC1)N(Cc1ccco1)C(=O)c1ccc2c(c1)OCO2` (stereo unspecified), for which the Potency was inactive: > 76.9 µM.

On to `COc1ccc2c(CC(=O)OCC(=O)N3CCc4ccccc43)coc2c1`, for which the Potency is inactive: > 76.9 µM.

Turning to `Cc1cc(Cl)c(S(=O)(=O)NCC2CCCO2)cc1OCC(N)=O` (stereo unspecified), the Potency is inactive: > 76.9 µM.

Consider `N#Cc1c(SCC(=O)N2CCCCC2)nsc1SCC(=O)N1CCCCC1`, for which the Potency is inactive: > 76.9 µM.

In the case of `O=C(O)c1ccc(NCc2cccnc2)cc1`, the Potency is inactive: > 76.9 µM.

For the molecule `CC(C)n1c(=N)c(C(=O)NCCc2ccccc2)cc2c(=O)n3ccccc3nc21`, the Potency is inactive: > 76.9 µM.

For the molecule `Cc1cc2oc(C(=O)NCc3ccc4c(c3)OCO4)c(C)c2cc1C`, the Potency was inactive: > 76.9 µM.

Take `COc1ccc(OCC(=O)N2CCN(C(=O)COc3ccccc3)CC2)cc1`: the Potency was inactive: > 76.9 µM.

With `CCOc1ccc(-c2csc(NC(=O)C3CCCO3)n2)cc1` (stereo unspecified), the Potency was inactive: > 76.9 µM.

In the case of `O=C(NCc1ccc(F)cc1)c1cc(-c2ccco2)on1`, the Potency was inactive: > 76.9 µM.

Regarding `O=C1C=C(NCC2CCCO2)C2(CCCCC2)O1` (stereo unspecified), the Potency was inactive: > 76.9 µM.

With `CCOc1ncccc1C(=O)Nc1ccc(-c2cn3ccsc3n2)cc1`, the Potency was inactive: > 76.9 µM.

In the case of `COC(=O)CS(=O)(=O)c1nnc([C@H](Cc2ccccc2)NC(=O)OC(C)(C)C)o1`, the Potency was inactive: > 76.9 µM.

For the molecule `O=C(Nc1ccc(F)cc1F)c1ccc(COc2c(F)c(F)cc(F)c2F)o1`, the Potency entry was “inactive”.

`Cc1cccc2sc(NC(=O)CN(C)S(=O)(=O)c3ccc(Br)s3)nc12`: the Potency was inactive: > 76.9 µM.

For `O=c1c(-c2ccc(F)cc2)coc2c3c(ccc12)OCCO3`, the Potency was inactive: > 76.9 µM.

As for `O=C1CCCCCN1C(=O)c1ccc(C(=O)N2CCCCCC2=O)cc1`, the Potency is inactive: > 76.9 µM.

In the case of `CCOC(=O)C1CCN(C(=O)C2CCN(c3nc4ccc(OC)cc4s3)CC2)CC1`, the Potency is inactive: > 76.9 µM.

As for `COc1ccc(N2CCN(Cc3nc(-c4ccc(Cl)cc4Cl)no3)CC2)cc1`, the Potency was inactive: > 76.9 µM.

For the molecule `Cc1cc(C)nc(Nc2n[nH]c(COc3ccccc3)n2)n1`, the Potency was inactive: > 76.9 µM.

On to `Cc1ccc(C(=O)C(NC(=O)c2ccco2)N2CCOCC2)cc1` (stereo unspecified), for which the Potency is inactive: > 76.9 µM.

For `COc1cc(OC)cc(-n2nnnc2SCC(=O)N2CCCC2)c1`, the Potency was inactive: > 76.9 µM.

In the case of `CN=C1SC(CC(=O)NCCc2ccc(OC)c(OC)c2)C(=O)N1C` (stereo unspecified), the Potency was inactive: > 76.9 µM.

Regarding `COc1cccc(-c2nnc(SCC(=O)Nc3ccc(OC)c(OC)c3)n2N)c1`, the Potency is inactive: > 76.9 µM.

Regarding `Cc1ccc(C(=O)CSc2nnc(-c3cccnc3)n2N)cc1`, the Potency is inactive: > 76.9 µM.

On to `O=C(NC1CCCC1)C1CC(c2ccc(F)cc2)=NO1` (stereo unspecified), for which the Potency was inactive: > 76.9 µM.

Regarding `CCS(=O)(=O)Nc1ccc(-c2nnc(SCC(=O)c3ccc(NC(C)=O)c(OC)c3)o2)cc1`, the Potency was inactive: > 76.9 µM.

With `O=C(Nc1ccc(N2CCCC2=O)cc1)c1cccc(F)c1`, the Potency was inactive: > 76.9 µM.

`N#Cc1nc(COc2ccccc2F)oc1NCCc1ccccc1`: the Potency entry is “inactive”.

With `Cc1ccc(C(=O)NCCN(C)C)c(C)c1`, the Potency was inactive: > 76.9 µM.

As for `COC(=O)COc1cccc(NC(=O)c2ccccc2)c1`, the Potency was inactive: > 76.9 µM.

Take `COc1ccc(Cl)cc1NC(=O)NC(C)c1ccncc1` (stereo unspecified): the Potency is inactive: > 76.9 µM.

`O=C(CCc1nc(-c2ccccc2F)no1)Nc1ccc(Oc2ccccc2)cc1`: the Potency is inactive: > 76.9 µM.

On to `CC(NC(=O)c1ccccc1)C(=O)NC1=NCCS1` (stereo unspecified), for which the Potency was inactive: > 76.9 µM.

Take `COc1ccc(N2C(=O)C(CC(=O)O)S/C2=C\C(C)=O)cc1` (stereo unspecified): the Potency was inactive: > 76.9 µM.

On to `CS(=O)(=O)N(CCc1ccccc1)CC(=O)N1CCN(c2ccccc2)CC1`, for which the Potency is inactive: > 76.9 µM.
